From PMC9174058
These are yes or no findings as the source states them, for the method shown. In cells and extracts the contact can be indirect. Some results given as binding are weak or reduced against the parent protein; the word gives no strength. Tags and fused reporters may be left off the sequences shown.

By UniProt entry, the sequences of proteins in these tests, tags left out.
UniProt Q96P20: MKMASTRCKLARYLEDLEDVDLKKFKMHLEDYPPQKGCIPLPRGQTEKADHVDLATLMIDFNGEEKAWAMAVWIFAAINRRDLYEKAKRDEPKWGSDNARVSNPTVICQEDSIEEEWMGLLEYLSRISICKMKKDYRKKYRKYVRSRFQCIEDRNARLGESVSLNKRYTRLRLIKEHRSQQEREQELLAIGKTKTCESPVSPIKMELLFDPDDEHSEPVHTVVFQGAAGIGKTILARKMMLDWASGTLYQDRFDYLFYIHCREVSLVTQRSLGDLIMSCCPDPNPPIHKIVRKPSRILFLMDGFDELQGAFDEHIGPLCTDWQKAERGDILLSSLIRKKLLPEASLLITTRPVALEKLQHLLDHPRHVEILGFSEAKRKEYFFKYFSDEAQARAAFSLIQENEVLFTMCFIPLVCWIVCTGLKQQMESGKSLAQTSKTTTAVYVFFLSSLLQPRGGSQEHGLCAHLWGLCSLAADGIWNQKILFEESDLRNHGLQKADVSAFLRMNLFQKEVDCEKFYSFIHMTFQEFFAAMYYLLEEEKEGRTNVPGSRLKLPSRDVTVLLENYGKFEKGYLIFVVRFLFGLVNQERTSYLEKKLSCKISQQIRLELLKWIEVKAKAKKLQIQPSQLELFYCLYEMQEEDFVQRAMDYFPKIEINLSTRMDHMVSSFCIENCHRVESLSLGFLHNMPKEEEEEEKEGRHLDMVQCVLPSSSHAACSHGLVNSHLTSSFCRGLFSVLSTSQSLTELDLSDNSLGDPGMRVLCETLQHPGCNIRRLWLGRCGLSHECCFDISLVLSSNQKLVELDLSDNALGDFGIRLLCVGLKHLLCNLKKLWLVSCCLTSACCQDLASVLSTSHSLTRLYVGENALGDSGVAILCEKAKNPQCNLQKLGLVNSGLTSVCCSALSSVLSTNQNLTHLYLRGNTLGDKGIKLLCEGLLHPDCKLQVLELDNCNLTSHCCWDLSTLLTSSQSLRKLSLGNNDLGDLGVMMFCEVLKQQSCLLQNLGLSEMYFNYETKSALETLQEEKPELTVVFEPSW

Tests used:
[1] = target: T1, NLRP11-Flag (human) (UniProt P59045); experiment: condition: only supernatants of primed cells without nigericin; co-IP; as a12 but supernatants of cells LPS-primed only, without nigericin
T1 sequence: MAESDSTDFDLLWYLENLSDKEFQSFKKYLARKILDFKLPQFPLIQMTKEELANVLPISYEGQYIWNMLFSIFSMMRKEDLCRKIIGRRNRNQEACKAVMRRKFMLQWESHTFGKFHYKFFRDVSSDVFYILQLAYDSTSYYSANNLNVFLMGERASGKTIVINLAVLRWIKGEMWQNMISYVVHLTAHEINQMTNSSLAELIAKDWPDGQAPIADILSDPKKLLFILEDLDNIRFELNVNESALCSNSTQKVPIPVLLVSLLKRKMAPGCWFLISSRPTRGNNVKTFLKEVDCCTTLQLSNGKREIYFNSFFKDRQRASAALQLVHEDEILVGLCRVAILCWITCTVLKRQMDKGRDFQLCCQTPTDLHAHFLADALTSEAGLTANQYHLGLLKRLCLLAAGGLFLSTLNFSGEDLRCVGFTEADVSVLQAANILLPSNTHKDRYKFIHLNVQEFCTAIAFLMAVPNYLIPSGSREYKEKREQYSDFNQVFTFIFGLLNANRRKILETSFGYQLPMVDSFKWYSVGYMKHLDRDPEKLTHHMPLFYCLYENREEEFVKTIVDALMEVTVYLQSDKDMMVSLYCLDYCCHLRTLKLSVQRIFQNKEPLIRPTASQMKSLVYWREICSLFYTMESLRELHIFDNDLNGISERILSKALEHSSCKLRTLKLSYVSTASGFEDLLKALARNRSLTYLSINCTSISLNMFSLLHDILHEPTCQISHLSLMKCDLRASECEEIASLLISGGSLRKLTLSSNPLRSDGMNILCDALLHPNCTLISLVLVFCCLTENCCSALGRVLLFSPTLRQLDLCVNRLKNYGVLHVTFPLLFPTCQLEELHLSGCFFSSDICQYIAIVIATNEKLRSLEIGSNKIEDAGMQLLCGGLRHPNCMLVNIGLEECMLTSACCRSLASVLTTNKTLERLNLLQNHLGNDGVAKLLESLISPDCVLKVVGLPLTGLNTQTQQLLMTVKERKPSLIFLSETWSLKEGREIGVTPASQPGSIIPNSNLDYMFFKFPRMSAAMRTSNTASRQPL

[2] = target: T1, NLRP11-Flag (human); experiment: co-IP; immobilised anti-Flag antibodies, culture supernatants of NLRP11^Flag THP-1 cells primed with LPS and activated with nigericin (5 uM, 10 min); media adjusted to 0.1% Triton X-100, washed with 50 mM NaCl, 0.1% Triton X-100; immunoblot for NLRP3

## NLRP3 (endogenous, THP-1) (from UniProt Q96P20 1-1036)
[1]
  binding: no binding
[2]
  binding: binds
